The other results are listed elsewhere or left out.
Experiments:
Assay in all cases: glycan array binding signal (z-score within array); higher = stronger binding
Details in all cases: glycan notation: IUPAC condensed, linker removed
[1] = biological target: Glc(b1-4)Glc(b1-4)Glc(b1-3)Glc
How it was run: (§1)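 Glycan array data were curated from 3228 arrays in the Consortium for Functional Glycomics database and kept only where the protein sequence was available. Glycan names were converted to IUPAC-condensed notation, and columns mapping to the same glycan were averaged. The binding signal is a within-array Z-score, averaged across arrays of the same protein sequence at different concentrations or buffers and across linkers. Negative Z-scores can be read as non-binding.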

[2] = biological target: Glc(b1-4)Glc(b1-4)Glc(b1-3)Glc(b1-4)Glc(b1-4)Glc(b1-3)Glc
How it was run: as §1

[3] = biological target: Glc(b1-4)Glc(b1-4)Glc(b1-4)Glc
How it was run: as §1

[4] = biological target: Glc(b1-4)Glc(b1-4)Glc(b1-4)Glc(b1-3)Glc
How it was run: as §1

[5] = biological target: Glc(b1-4)Glc(b1-4)Glc(b1-4)Glc(b1-4)Glc
How it was run: as §1

[6] = biological target: Glc(b1-4)Glc(b1-4)Glc(b1-4)Glc(b1-4)Glc(b1-4)Glc
How it was run: as §1

[7] = biological target: Glc(b1-4)Glc(b1-4)Glc(b1-4)Glc(b1-4)Glc(b1-4)Glc(b1-4)Glc
How it was run: as §1

[8] = biological target: Glc(b1-4)Glc(b1-4)Glc(b1-4)Glc(b1-4)Glc(b1-4)Glc(b1-4)Glc(b1-4)Glc
How it was run: as §1

[9] = biological target: Glc(b1-4)Glc(b1-4)Glc(b1-4)Glc(b1-4)Glc(b1-4)Glc(b1-4)Glc(b1-4)Glc(b1-4)Glc
How it was run: as §1

[10] = biological target: Glc(b1-4)Glc(b1-4)Glc(b1-4)Glc(b1-4)Glc(b1-4)Glc(b1-4)Glc(b1-4)Glc(b1-4)Glc(b1-4)Glc
How it was run: as §1

[11] = biological target: Glc(b1-4)Glc(b1-4)Glc(b1-4)Glc(b1-4)Glc(b1-4)Glc(b1-4)Glc(b1-4)Glc(b1-4)Glc(b1-4)Glc(b1-4)Glc
How it was run: as §1

[12] = biological target: Glc(b1-4)Glc(b1-4)Glc(b1-4)Glc(b1-4)Glc(b1-4)Glc(b1-4)Glc(b1-4)Glc(b1-4)Glc(b1-4)Glc(b1-4)Glc(b1-4)Glc
How it was run: as §1

[13] = biological target: Glc(b1-4)Glc(b1-4)Glc(b1-4)Glc(b1-4)Glc(b1-4)Glc(b1-4)Glc(b1-4)Glc(b1-4)Glc(b1-4)Glc(b1-4)Glc(b1-4)Glc(b1-4)Glc
How it was run: as §1

Glc(b1-6)Glc = biological target: Glc(b1-6)Glc
How it was run: as §1

Glc(b1-6)Glc(b1-6)Glc = biological target: Glc(b1-6)Glc(b1-6)Glc
How it was run: as §1

[14] = biological target: Glc(b1-6)Glc(b1-6)Glc(b1-6)Glc
How it was run: as §1

[15] = biological target: Glc(b1-6)Glc(b1-6)Glc(b1-6)Glc(b1-6)Glc
How it was run: as §1

[16] = biological target: Glc(b1-6)Glc(b1-6)Glc(b1-6)Glc(b1-6)Glc(b1-6)Glc
How it was run: as §1

[17] = biological target: Glc(b1-6)Glc(b1-6)Glc(b1-6)Glc(b1-6)Glc(b1-6)Glc(b1-6)Glc
How it was run: as §1

[18] = biological target: Glc(b1-6)Glc(b1-6)Glc(b1-6)Glc(b1-6)Glc(b1-6)Glc(b1-6)Glc(b1-6)Glc
How it was run: as §1

[19] = biological target: Glc(b1-6)Glc(b1-6)Glc(b1-6)Glc(b1-6)Glc(b1-6)Glc(b1-6)Glc(b1-6)Glc(b1-6)Glc
How it was run: as §1

[20] = biological target: Glc(b1-6)Glc(b1-6)Glc(b1-6)Glc(b1-6)Glc(b1-6)Glc(b1-6)Glc(b1-6)Glc(b1-6)Glc(b1-6)Glc
How it was run: as §1

[21] = biological target: Glc(b1-6)Glc(b1-6)Glc(b1-6)Glc(b1-6)Glc(b1-6)Glc(b1-6)Glc(b1-6)Glc(b1-6)Glc(b1-6)Glc(b1-6)Glc
How it was run: as §1

[22] = biological target: Glc(b1-6)Glc(b1-6)Glc(b1-6)Glc(b1-6)Glc(b1-6)Glc(b1-6)Glc(b1-6)Glc(b1-6)Glc(b1-6)Glc(b1-6)Glc(b1-6)Glc(b1-6)Glc(b1-6)Glc(b1-6)Glc
How it was run: as §1

[23] = biological target: Man(b1-4)Man(b1-4)Man(b1-4)Man
How it was run: as §1

[24] = biological target: Man(b1-4)Man(b1-4)Man(b1-4)Man(b1-4)Man
How it was run: as §1

[25] = biological target: Man(b1-4)Man(b1-4)Man(b1-4)Man(b1-4)Man(b1-4)Man
How it was run: as §1

[26] = biological target: Xyl(b1-4)Xyl(b1-4)Xyl(b1-4)Xyl(b1-4)Xyl
How it was run: as §1

[27] = biological target: Xyl(b1-4)Xyl(b1-4)Xyl(b1-4)Xyl(b1-4)Xyl(b1-4)Xyl
How it was run: as §1

B1: laminarinase (Bacillus halodurans), Q9KBL8 (protein)
chain: EETIELEGEVIPARLLSTKVKALNYDDYHNVLIDRCVEGGESIRGLGDGSWIAFHDINLEQPTNLLTVRAANENKQAVLEIRADRVDGPLVSQSVIPPTGGLQAWTTVTAQVNGETSEIRDLYLVFKGEFQLSWFSFS
- glycan array binding signal (z-score) [1]: -0.529
- glycan array binding signal (z-score) [2]: -0.15
- glycan array binding signal (z-score) [3]: -0.528
- glycan array binding signal (z-score) [4]: -0.37
- glycan array binding signal (z-score) [5]: -0.572
- glycan array binding signal (z-score) [6]: -0.642
- glycan array binding signal (z-score) [7]: -0.496
- glycan array binding signal (z-score) [8]: -0.428
- glycan array binding signal (z-score) [9]: 0.181
- glycan array binding signal (z-score) [10]: -0.077
- glycan array binding signal (z-score) [11]: -0.21
- glycan array binding signal (z-score) [12]: -0.396
- glycan array binding signal (z-score) [13]: -0.207
- glycan array binding signal (z-score) (Glc(b1-6)Glc): -0.615
- glycan array binding signal (z-score) (Glc(b1-6)Glc(b1-6)Glc): -0.537
- glycan array binding signal (z-score) [14]: -0.324
- glycan array binding signal (z-score) [15]: -0.093
- glycan array binding signal (z-score) [16]: -0.163
- glycan array binding signal (z-score) [17]: -0.284
- glycan array binding signal (z-score) [18]: -0.242
- glycan array binding signal (z-score) [19]: -0.157
- glycan array binding signal (z-score) [20]: 0.093
- glycan array binding signal (z-score) [21]: -0.361
- glycan array binding signal (z-score) [22]: 0.097
- glycan array binding signal (z-score) [23]: -0.687
- glycan array binding signal (z-score) [24]: -0.67
- glycan array binding signal (z-score) [25]: -0.682
- glycan array binding signal (z-score) [26]: -0.525
- glycan array binding signal (z-score) [27]: -0.466

Source: the supplement of paper PMC8728848
